# Experimental data reported in PubChem BioAssay AID1347073 (National Center for Advancing Translational Sciences (NCATS), 2019).
# About 200 (0.44%) of roughly 45,000 compounds were called active. About 7% were inconclusive and are not listed. Calls follow the shape of the dose curve; as a rule, active = well fitted activation curve with a large enough effect; inconclusive = small, poorly fitted or top-dose-only effect; inactive = no such curve, though single readings can be large or run the other way. The list shows a part of the results.
# Assay: qHTS of TDP-43 Inhibitors: NCGC Sytravon Library Screen; also: 0% is about no effect; nearly all actives have a fitted effect of over 55% in size
# Conditions: yeast TDP-43 toxicity rescue, BacTiter-Glo growth, 24 h; series mostly up to 46.1 µM; growth rescue (activation): at the top concentration
# Procedure, shortened: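 TDP-43-expressing yeast, pregrown in raffinose, seeded at OD600 0.02 in galactose medium with compound for 24 hr at 30 deg C. Growth read by BacTiter-Glo luminescence, so rescue of toxicity appears as activation.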
row,Structure (SMILES),growth rescue (activation)
1,Cc1cc(C)c2cc(C#N)c(N3CCCN(C(=O)c4cnccn4)CC3)nc2c1,inactive: 28.9%
2,CCC(=O)Nc1ccc2c(c1)nc(CCN1CCN(c3ccccn3)CC1)n2C,inactive: -10.8%
3,CC1(C)CN(O)CCN1O,inactive: -3.91%
4,N#CC1=C(N)Oc2cc(N)ccc2C1c1ccc(F)cc1F (stereo not drawn),inactive: 10.7%
5,CCNC(=O)C1CCCN(Cc2ccc(C(=O)OCC)cc2)CC1 (stereo not drawn),inactive: 2.34%
6,CC(C)Cn1c(N)c(C(=O)COC(=O)/C=C/c2cccs2)c(=O)n(C)c1=O,inactive: -7.98%
7,CN1CCN(c2ncnc3c2ncn3[C@H]2CN(Cc3ccc(F)cc3)C[C@@H](CO)O2)CC1,inactive: 3.51%
8,CS(=O)(=O)c1nc(-c2ccc(F)cc2)cc(C(F)(F)F)n1,inactive: -6.68%
9,CCN(C(=O)Cn1c(=O)oc2ccccc21)c1cccc(C)c1,inactive: -4.09%
10,CCc1cc(C(=O)NNC(=O)CCl)sc1C,inactive: 18.8%
11,Cc1cc(C)c2[nH]c(=O)c(CN(Cc3ccco3)C(=O)C3CCCO3)cc2c1 (stereo not drawn),inactive: 8.4%
12,COc1ccc(C(=O)NC2CCCCC2)cc1S(=O)(=O)N1CCOCC1,inactive: -1.55%
13,CCCC(=O)N(c1ccc2oc(C)c(C(C)=O)c2c1)S(=O)(=O)c1ccc(C)c([N+](=O)[O-])c1,inactive: -1.02%
14,CCOc1cc(/C=N/NC(=O)CN2CCCCC2)ccc1OCc1ccc(Cl)cc1,inactive: 28.6%
15,COCCOc1cc(NC(=O)CS(=O)(=O)CC(=O)N(C)C)c(Cl)cc1Cl,inactive: 2.77%
16,CCN(CC)S(=O)(=O)c1ccc(N2CCOCC2)c(NC(=O)c2ccc3ccccc3c2)c1,inactive: 2.64%
17,Cc1cc(C)n(C(=O)CSc2nnc(SCC(=O)n3nc(C)cc3C)s2)n1,inactive: 8.31%
18,CC(C)(C)c1cc[n+](-c2[nH]c(=O)sc2/C=N/NC([S-])=Nc2ccccc2)cc1,inactive: 6.45%
19,CS(=O)(=O)n1nc(NCc2cccs2)nc1NCc1cccs1,inactive: 15.2%
20,CC(C)N(CCNC(=O)c1ccc(OCC2CCCO2)cc1)C(C)C (stereo not drawn),inactive: -1.49%
21,CCOC(=O)CCC(=O)OCC(=O)NC(C)C1CC2CCC1C2 (stereo not drawn),inactive: 16.9%
22,COc1ccccc1-n1cnnc1SCC(=O)NCc1cccs1,inactive: -7.7%
23,Cc1ccc(S(=O)(=O)N2CCN(C(C)C)CC2)cc1,inactive: -13.4%
24,COc1ccc(C(C(=O)NC2CCCC2)N(C(=O)c2snc(C(N)=O)c2N)c2cc(C)ccc2OC)cc1OC (stereo not drawn),inactive: 5.86%
25,CC1SC(c2ccc(F)cc2)N(CCc2ccccc2)C1=O (stereo not drawn),inactive: 17.4%
26,COc1ccc(CCNC(=O)COc2ccc(-c3ccc(C#N)cc3)cc2)cc1,inactive: -16%

row,Structure (SMILES),growth rescue (activation)
1,Cc1ccc(NC(=O)NCc2ccccn2)cc1,inactive: -2.52%
2,O=c1c2cc3c(nc2[nH]c(=S)n1-c1ccccc1)CCCC3,inactive: 2.34%
3,O=C(CCCN1C(=O)c2ccccc2C1=O)N1CCOCC1,inactive: 21.8%
4,O=C(O)c1ccccc1-n1c(-c2ccccc2)cc2c1CCCC2=O,inactive: 6.09%
5,COc1cc(/C=N/NC(=O)CCn2nnc3ccccc32)ccc1O,inactive: -2.08%
6,O=C(COC(=O)C1C2CC3OC(=O)C1C3C2)Nc1ccccc1 (stereo not drawn),inactive: -14.7%
7,O=C(Nc1cc(=O)[nH]c2ncnn12)c1ccc(Cl)cc1Cl,inactive: -5.55%
8,N#C/C(=C/c1ccc(-c2ccccc2)o1)c1nc(-c2cccs2)cs1,inactive: 10.4%
9,CCCCn1c(=O)c(CCC(=O)OC(C)C(=O)Nc2cccc(Cl)c2Cl)nc2ccccc21 (stereo not drawn),inactive: 8.88%
10,CC1Cc2ccccc2N1C(=O)CSc1nncn1C (stereo not drawn),inactive: 0.929%
11,CCOc1ccc(NC(=O)COc2ccc(S(=O)(=O)N3CCOCC3)cc2)cc1,inactive: 2.6%
12,COc1cc2c(cc1NC(=O)C(C)Sc1cccc[n+]1[O-])oc1ccccc12 (stereo not drawn),inactive: 21.7%
13,COC(=O)CN1C(c2cccc(Cl)c2)=Nc2ccc(Cl)cc2C1c1ccccc1 (stereo not drawn),inactive: -2.64%
14,CC(=O)c1ccc(S(=O)(=O)N2CCN(C(=O)c3ccc(COc4ccccc4)o3)CC2)cc1,inactive: 21.4%
15,COc1ccc(NS(=O)(=O)c2cc(NC(=O)c3nn(C)c(=O)c4ccccc34)ccc2OC)cc1,inactive: 13.3%
16,Cc1cc(C)c2nc(-c3ccccn3)cc(C(=O)NCCc3ccc(S(N)(=O)=O)cc3)c2c1,inactive: 15.4%
17,O=C(Nc1ccc2c(c1)OCO2)C1CC(c2ccccc2O)=NO1 (stereo not drawn),inactive: 5.16%
18,O=C(N/N=C/c1cccc(O)c1)C(=O)N1CCCCCC1,inactive: 1.56%
19,O=C(c1ccccc1)N1CCN(c2ccc([N+](=O)[O-])c(N3CCOCC3)c2)CC1,inactive: -0.654%
20,CN(c1ncc(C(F)(F)F)cc1Cl)N1C(=O)c2cccc(N)c2C1=O,inactive: 10.3%
21,Cc1cccc(N(C(=O)c2csnn2)C(C(=O)NC2CCCCC2)c2ccccn2)c1C (stereo not drawn),inactive: -24.6%
22,CC(C)(C)c1ccc(-c2cn(-c3ccc(Br)cc3)c3[n+]2CCCS3)cc1,inactive: 9.75%
23,CCN(CC(=O)Nc1ccccc1SC)Cc1nc2ccccc2c(=O)[nH]1,inactive: -2.68%
24,CC1Cc2ccccc2N1CC(=O)c1c(N)n(Cc2ccccc2)c(=O)n(C)c1=O (stereo not drawn),inactive: 2.42%
25,CCN(c1ccccc1)S(=O)(=O)c1ccc(Cl)c(NC(=O)COC(=O)C2CC2C)c1 (stereo not drawn),inactive: 18.5%
26,COCCC1CCCCN1C(=O)c1cc(COc2ccc(C)nc2)on1 (stereo not drawn),inactive: 4.07%

row,Structure (SMILES),growth rescue (activation)
1,CC(=O)Nc1ccc(NC(=O)C(C)OC(=O)CNS(=O)(=O)c2cccc(Cl)c2)cc1 (stereo not drawn),inactive: 4.71%
2,CCOc1ccc(N2CC(C(=O)N3CCCc4ccccc43)CC2=O)cc1 (stereo not drawn),inactive: 18.7%
3,CC(C)(C)C(=O)/C=c1\[nH]c(=O)/c(=C\c2ccccc2F)s1,inactive: 9.63%
4,O=S(=O)(c1ccc2ccccc2c1)N1CCN(CCO)CC1,inactive: -6.62%
5,O=C(Nc1ccccc1-c1ccccc1)C1CCCC1,inactive: 22.9%
6,Cc1nn(-c2ccccc2)c(C)c1/C=C/C(=O)OCC(=O)Nc1ncc(Cl)cc1Cl,inactive: 7.71%
7,CCCCC(C(=O)O)C(C)CC(=O)Nc1ccn(-c2ccccc2)n1 (stereo not drawn),inactive: 31.4%
8,CCSc1nnc(NC(=O)C2CC(=O)N(Cc3ccc(C)cc3)C2)s1 (stereo not drawn),inactive: -0.728%
9,COc1ccc(C(=O)Nc2ccccc2-c2nnn(CC(N)=O)n2)cc1,inactive: 0.865%
10,CC(=O)C(Cc1ccccc1)NC(=O)CN1CCN(Cc2ccccc2)CC1 (stereo not drawn),inactive: 12.9%
11,NS(=O)(=O)c1ccc(NC(=S)Nc2ccc(OCc3ccccc3)cc2)cc1,inactive: -7.39%
12,Nc1ccc(-c2nc3ccc(C(=O)O)cc3s2)cc1,inactive: 19.2%
13,Cc1ccc(NC(=O)C(OC(=O)c2ccc(F)cc2)c2ccccc2)cc1Cl (stereo not drawn),inactive: -9.79%
14,CCCCN(C(=O)CCC(=O)Nc1cc(C)on1)C(C(=O)NC(C)(C)C)c1ccccc1Cl (stereo not drawn),inactive: 13.9%
15,COC(=O)c1sc(NC(=O)c2ccc3c(c2)OCO3)c(C#N)c1C,inactive: 0.0062%
16,Cc1cccnc1CNC(=O)C1(C)CCCN1CC(C)C (stereo not drawn),inactive: -4.95%
17,COc1ccc([N+](=O)[O-])cc1NC(=O)c1cn(-c2ccc(Cl)cc2)c(=O)c2ccccc12,inactive: -6.62%
18,COc1ccc(S(=O)(=O)NCC(c2cccnc2)N2CCN(c3ccccc3OC)CC2)cc1C (stereo not drawn),inactive: -3.68%
19,O=C1/C(=C\c2c(NCCOCCO)nc3ccccn3c2=O)SC(=S)N1Cc1ccco1,inactive: 11.8%
20,C[C@]12CCC(=O)C=C1CCC1C2CC[C@@]2(C)C1CCC21OCCO1 (stereo partly drawn),inactive: 19%
21,CC(=O)c1ccc(S(=O)(=O)N(CCCO)Cc2cc3cc4c(cc3[nH]c2=O)OCCO4)cc1,inactive: -20.9%
22,COc1ccc(/C=N/NC(=O)c2sccc2OCc2ccc(F)cc2)cc1OC,inactive: 11.8%
23,CCOC(=O)COn1c(=O)c(-c2ccc(OC)cc2)[n+]([O-])c2ccccc21,inactive: 0.0965%
24,CCOC(=O)C1=C(c2ccccc2)OC(N)=C(C#N)C1c1ccc(Br)s1 (stereo not drawn),inactive: -2.53%
25,Cc1ccc(-c2csc(NC(=O)c3ccc(Br)cc3)c2C(=O)O)cc1,inactive: -38.2%
26,COc1ccc(N2CCOCC2)c(NC(=O)COc2cccc(C)c2)c1,inactive: 19.5%

row,Structure (SMILES),growth rescue (activation)
1,COc1ccccc1N(CC(=O)NCc1ccc(F)cc1)C(=O)CCC(=O)Nc1nccs1,inactive: -12.1%
2,Cc1ccc(-c2ccc(/C=N/n3cnnc3)o2)cc1,inactive: -5.76%
3,COc1ccccc1C(=O)Nc1ccc(NC(=O)C2CCCCC2)nc1,inactive: -0.124%
4,CCN1C(=O)c2cccc3c(S(=O)(=O)Nc4ccccc4O)ccc1c23,inactive: 10.8%
5,CC1CCCCC12NC(=O)N(CC(=O)OCC(=O)Nc1ccc(F)cc1[N+](=O)[O-])C2=O (stereo not drawn),inactive: -1.05%
6,CCOc1cc(C(C(=O)NCC2CCCO2)N(C(=O)Cn2nnc3ccccc32)c2ccccc2C)ccc1O (stereo not drawn),inactive: 5.04%
7,CN1CCN(c2oc(/C=C/c3ccc(F)cc3)nc2C#N)CC1,inactive: 1.58%
8,Cc1nn(Cc2ccccc2)c(C)c1NC(=O)CSc1nc2c(c(C(F)(F)F)n1)CCc1ccccc1-2,inactive: 16.6%
9,COc1ccc(C2=NO[C@@H]3C(=O)N(Cc4ccccc4)C(=O)[C@H]23)c(OC)c1,inactive: 27.9%
10,CC(C)Cn1c(N)c(C(=O)CSc2ncnc3sc4c(c23)CCCC4)c(=O)n(C)c1=O,inactive: 14.8%
11,CCn1nc(NC(C)=O)c2cc3ccc(C)cc3nc21,inactive: -3.2%
12,NC(=O)C1CCN(C(=O)c2cccc(CN3C(=O)c4ccccc4C3=O)c2)CC1,inactive: -0.0227%
13,COc1ccccc1C/C(N)=N/O,inactive: 11.1%
14,CC1(C(=O)Nc2ccc(S(=O)(=O)Nc3ncccn3)cc2)CCCC1,inactive: 7.19%
15,CCCOc1ccc(F)cc1-c1cc(C(=O)NCCOC)[nH]n1,inactive: 13.4%
16,CCOc1ccccc1NC(=O)CN1CCC(C(=O)c2ccc(OC)cc2)CC1,inactive: 5.48%
17,COC(=O)c1ccc(C(=O)OC)c(NC(=O)CN(C)Cc2ccccc2)c1,inactive: 4.02%
18,COCCNC(=O)C1(C)CCCN(Cc2ccc(-c3ccccc3)o2)C1 (stereo not drawn),inactive: 9.58%
19,O=C(CCNc1n[nH]c(=O)[nH]c1=O)N/N=C/c1ccc(C(F)(F)F)cc1,inactive: -0.253%
20,CCc1ccccc1NC(=O)c1ccc(NS(C)(=O)=O)cc1,inactive: -8.01%
21,COc1ccc(C(C(=O)NCC2CCCO2)N(C(=O)Cn2nnc3ccccc32)c2ccc(NC(C)=O)cc2)c(OC)c1 (stereo not drawn),inactive: 3.1%
22,CS(=O)(=O)NN1C(=O)c2ccccc2NC12CCCC2,inactive: 5.25%
23,Brc1ccc(C=Nc2ccc(Nc3ccccc3)cc2)s1,inactive: 2.49%
24,O=C(Nc1cc(=O)[nH]c2nc(-c3ccc(Cl)cc3)nn12)c1ccccc1,inactive: 29.7%
25,CCN(CC)S(=O)(=O)c1cc(NC(=O)COc2ccc(C#N)cc2OC)ccc1C,inactive: 26.4%
